{
  "source": "PubChem BioAssay AID686979",
  "about": "(National Center for Advancing Translational Sciences (NCATS), 2013)",
  "note": "Values joined by “and” are separate entries in the source; they are usually repeats but may differ in a detail not shown here. Equal values may be shown once. The whole screen tested about 420,000 compounds, of which about 50,000 (12%) were called active. Inconclusive results, whose numbers are uncertain, are shown with a selection of clear calls. The call rests on the fitted dose curve; in most records, active means well fitted inhibition curve with a large enough effect; inconclusive means small, poorly fitted or top-dose-only effect; inactive means flat fitted curve, though single readings scatter. Where the call is inconclusive, the potency comes from a doubtful curve fit. On the % scale 0 is the no-effect control and ±100 the full control effect; potency means the concentration at half of the fitted maximal effect; tags describe the fitted curve by direction and shape.",
  "data": [
    {"assay": "qHTS for Inhibitors of human tyrosyl-DNA phosphodiesterase 1 (TDP1): qHTS in cells in presence of CPT; further: nearly all actives have a fitted effect of over 55% in size", "settings": "chicken DT40 Tdp1-/-;hTDP1 cells + 20 nM CPT, ATP luminescence, 48 h; activity change, negative = growth inhibition: at 46.2 µM (top of the series) unless noted", "method_in_brief": "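Chicken DT40 Tdp1-/- cells complemented with human TDP1, 400 cells/well, exposed to compounds plus 20 nM camptothecin for at least 48 h at 37 C; viability read as ATP content by CellTiter-Glo luminescence.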", "values": [
      {"smiles": "CCOC(=O)CN1C(C(=O)c2ccccc2)=C(OC(=O)c2ccccc2)c2ccccc2S1(=O)=O", "Potency": "active: 20.6 µM"},
      {"smiles": "O=C(OCc1nnc(-c2ccccc2)o1)c1ccc(Cl)cc1", "activity change, negative = growth inhibition": "inactive: -10.4%"},
      {"smiles": "CC(=O)CSc1nc(-c2ccccc2)c(-c2ccccc2)o1", "activity change, negative = growth inhibition": "inactive: -29.7%"},
      {"smiles": "Cc1cc(C)cc(NC(=O)Nc2cccs2)c1", "Potency": "inconclusive: 18.4 µM [inhibitor, single point]"},
      {"smiles": "Cc1ccc(CS(=O)(=O)c2cn(CC(=O)N3CCOCC3)c3ccccc23)cc1", "activity change, negative = growth inhibition": "inactive: 9.37%"},
      {"smiles": "O=C(Nc1ccccc1)c1nc[nH]c1C(=O)NCc1ccccc1", "Potency": "inconclusive: 29.1 µM [inhibitor, single point]"},
      {"smiles": "NS(=O)(=O)OCCCc1ccccc1", "Potency": "inconclusive: 18.4 µM [inhibitor, single point]"},
      {"smiles": "CC(=O)Nc1ccc(S(=O)(=O)N2CCCN(S(=O)(=O)c3ccc(NC(C)=O)cc3)CC2)cc1", "Potency": "inconclusive: 20.6 µM [inhibitor, single point]"},
      {"smiles": "O=C(N/N=C/c1cc(Cl)cc([N+](=O)[O-])c1O)C1CC1", "activity change, negative = growth inhibition": "inactive: -9.76%"},
      {"smiles": "C[C@@H]1C[C@H]2C3C[C@H](F)C4=CC(=O)C=CC4(C)[C@@]3(F)[C@@H](O)CC2(C)[C@@]1(O)C(=O)COC(=O)C(C)(C)C", "note": "(stereo partly specified)", "activity change, negative = growth inhibition": "inactive: 14.3%"},
      {"smiles": "O=C(c1nc2ccccc2[nH]1)c1ccccc1[N+](=O)[O-]", "activity change, negative = growth inhibition": "inactive: 3.4%"},
      {"smiles": "COC(=O)C(C)Sc1ccc2nnc(-c3ccc(F)cc3)n2n1", "note": "(stereo unspecified)", "activity change, negative = growth inhibition": "inconclusive: -33.2% [inhibitor]"},
      {"smiles": "O=C(C[n+]1ccc(C(=O)NCCCO)cc1)c1cccc(Br)c1", "activity change, negative = growth inhibition": "inactive: 11%"},
      {"smiles": "COc1cccc(CN2CCNC(=O)C2CC(=O)NCCn2cccn2)c1OC", "note": "(stereo unspecified)", "activity change, negative = growth inhibition": "inactive: -8.01%"},
      {"smiles": "CCN1C(=O)c2cccc3c(S(=O)(=O)N4CCC(C)CC4)ccc1c23", "Potency": "inconclusive: 18.4 µM [inhibitor, single point]"},
      {"smiles": "O=C(CCNC(=O)c1ccc(Br)cc1)Nc1ccc(S(=O)(=O)Nc2ncccn2)cc1", "activity change, negative = growth inhibition": "inactive: -1.52%"},
      {"smiles": "COc1ccc(-c2cc3ccccc3nc2N)cc1OC", "Potency": "active: 18.4 µM"},
      {"smiles": "CCOC(=O)c1[nH]c2cc3c(cc2c1NC(=O)CN1CCC(C)CC1)OCO3", "Potency": "active: 17.8 µM"},
      {"smiles": "COc1ccc(CCN2C(=O)CSC2=S)cc1OC", "Potency": "active: 2.91 µM"},
      {"smiles": "COCCCNc1oc(COc2ccc(Cl)cc2Cl)nc1C#N", "Potency": "inconclusive: 29.1 µM [inhibitor, single point]"},
      {"smiles": "COC(=O)c1cccc(COC(=O)c2ccc(CS(=O)(=O)c3ccc(C)cc3)cc2)c1", "activity change, negative = growth inhibition": "inconclusive: -30.9% [inhibitor]"},
      {"smiles": "CC(=O)c1ccc2c(c1)N(Cc1ccccc1Cl)C(=O)C(C)S2", "note": "(stereo unspecified)", "Potency": "inconclusive: 29.1 µM [inhibitor, single point]"},
      {"smiles": "O=C(CC1S/C(=N/N=C/c2cccs2)NC1=O)Nc1ccc(Cl)cc1", "note": "(stereo unspecified)", "activity change, negative = growth inhibition": "inactive: -13.7%"},
      {"smiles": "COc1cc2c(cc1NC(=S)Nc1cccc(C)c1)oc1ccccc12", "Potency": "inconclusive: 15.8 µM [inhibitor, single point]"},
      {"smiles": "Cc1cc2c(cc1S(=O)(=O)NCC(C)c1ccccc1)n(C)c(=O)c(=O)n2C", "note": "(stereo unspecified)", "Potency": "inconclusive: 23.1 µM [inhibitor, single point]"},
      {"smiles": "O=C(Nc1ccc2c(c1)OCCO2)N1CCN(c2ccc(F)cc2)CC1", "Potency": "inconclusive: 20.6 µM [inhibitor, single point]"},
      {"smiles": "Oc1ccc(C[C@H]2CNCCN2CCC23CC4CC(CC(C4)C2)C3)cc1", "Potency": "active: 18.4 µM"},
      {"smiles": "O=C1S/C(=C\\C=C\\c2ccco2)C(=O)N1c1ccc(O)cc1", "Potency": "active: 18.4 µM"},
      {"smiles": "CCCc1ccc2oc(C(=O)N3CCC(COC)C3)c(C)c2c1", "note": "(stereo unspecified)", "Potency": "inconclusive: 23.1 µM [inhibitor, partial curve]"},
      {"smiles": "CC(O)c1nc2ccccc2n1C/C=C/c1ccccc1", "note": "(stereo unspecified)", "Potency": "inconclusive: 29.1 µM [inhibitor, single point]"},
      {"smiles": "C=CCn1c(SCC(=O)c2c(N)n(C)c(=O)n(C)c2=O)nc2sc(CC)cc2c1=O", "activity change, negative = growth inhibition": "inactive: -8.2%"},
      {"smiles": "Cc1ccc(C(=O)N(C)CCOc2ccccc2)cc1S(=O)(=O)N1CCOCC1", "Potency": "inconclusive: 18.4 µM [inhibitor, partial curve]"},
      {"smiles": "O=C(NCc1ccccc1Cl)c1ccc(-c2ccccc2)cc1", "activity change, negative = growth inhibition": "inactive: -26.5%"},
      {"smiles": "CCOC(=O)c1ccc(NC(=O)c2c(N)n(Cc3ccccc3)c(=O)[nH]c2=O)cc1", "Potency": "active: 16.4 µM"},
      {"smiles": "Cc1nn(CCCC(=O)Nc2cc(Oc3ccc(F)cc3)cc([N+](=O)[O-])c2)c(C)c1[N+](=O)[O-]", "Potency": "inconclusive: 20.6 µM [inhibitor, single point]"},
      {"smiles": "Cc1cc(C(=O)NC2CCCCC2)c(C)n1-c1ccc(F)cc1", "Potency": "inconclusive: 20.6 µM [inhibitor, single point]"},
      {"smiles": "O=C(NN1C(=O)c2ccccc2NC1c1ccc([N+](=O)[O-])o1)c1ccc(Br)cc1", "note": "(stereo unspecified)", "Potency": "inconclusive: 9.2 µM [inhibitor, partial curve]"},
      {"smiles": "CCOC(=O)c1cccc(NC(=O)c2ccc3snnc3c2)c1", "Potency": "inconclusive: 16.4 µM [inhibitor, single point]"},
      {"smiles": "CCOC(=O)/C=C/c1ccc2c(c1)S(=O)(=O)N(c1cccc(OC)c1)[C@H]2CC(=O)OCC", "Potency": "inconclusive: 35.5 µM [inhibitor, single point] and inconclusive: 29.1 µM [inhibitor, single point]"},
      {"smiles": "N#C/C(=N\\Nc1ccc(Cl)c(Cl)c1)C(=O)C1CC1", "Potency": "active: 20.6 µM"},
      {"smiles": "O=C(Nc1ccc2oc(=O)ccc2c1)c1ccc(-c2cccc(Cl)c2)o1", "Potency": "active: 8.2 µM"},
      {"smiles": "COC(=O)c1nn(-c2nc(-c3ccc(OC)c(OC)c3)cc(C(F)(F)F)n2)cc1[N+](=O)[O-]", "activity change, negative = growth inhibition": "inactive: -21.6%"},
      {"smiles": "CC[C@@H](C)C(NC(=O)OC(C)(C)C)c1cn([C@@H](CCC(=O)OC(C)(C)C)C(=O)N2CCN(C(=O)OC(C)(C)C)CC2)nn1", "note": "(stereo partly specified)", "Potency": "inconclusive: 16.4 µM [inhibitor, single point]"},
      {"smiles": "Cc1ccc2c(c1)N(CC(=O)OC(CC(C)C)C(=O)NC1CCCC1)C(=O)CO2", "note": "(stereo unspecified)", "Potency": "inconclusive: 29.1 µM [inhibitor, single point]"},
      {"smiles": "CC1(C)c2ccccc2N2CC(=O)N[C@@]21/C=C/C=C/c1ccccc1", "Potency": "inconclusive: 29.1 µM [inhibitor, single point]"},
      {"smiles": "CC1(C)S[C@@H]2[C@H](NC(=O)C(C(=O)O)c3ccsc3)C(=O)N2[C@H]1C(=O)O", "note": "(stereo partly specified)", "activity change, negative = growth inhibition": "inactive: 4.13%"}
    ]}
  ]
}
